Source: the CheMixHub ionic liquid set
Further values from the same series stand in other lists.

Assay: xn = mol fraction of the nth substance listed
Settings: 100 kPa

CCCC[n+]1ccn(C)c1.F[B-](F)(F)F + O
x1 = 0.6023
Settings | viscosity [mPa·s]
318 K | 12.1
323 K | 10.66

CC[n+]1ccn(C)c1.N#C[N-]C#N + OCC(F)(F)F + CCO
viscosity [mPa·s]
Settings | 318.15 K | 323.15 K
x1 = 0.0355, x2 = 0.8508 | – | 0.1
x1 = 0.0692, x2 = 0.8058 | – | 0.5
x1 = 0.1059, x2 = 0.7569 | – | 0.9
x1 = 0.1341, x2 = 0.7174 | – | 1.2
x1 = 0.1703, x2 = 0.668 | 1.68 | 1.55
x1 = 0.2026, x2 = 0.6226 | 1.99 | 1.84
x1 = 0.2373, x2 = 0.574 | 2.31 | 2.13
x1 = 0.2705, x2 = 0.5266 | 2.59 | 2.39
x1 = 0.3059, x2 = 0.4761 | 2.88 | 2.66
x1 = 0.3367, x2 = 0.4558 | 3.11 | 2.86
x1 = 0.3741, x2 = 0.4288 | 3.38 | 3.1
x1 = 0.4093, x2 = 0.4055 | 3.61 | 3.31
x1 = 0.4361, x2 = 0.3894 | 3.78 | 3.46
x1 = 0.4751, x2 = 0.3581 | 4.02 | 3.67
x1 = 0.5091, x2 = 0.3393 | 4.21 | 3.85
x1 = 0.539, x2 = 0.314 | 4.37 | 3.99
x1 = 0.576, x2 = 0.2854 | 4.57 | 4.16
x1 = 0.6046, x2 = 0.2689 | 4.71 | 4.29
x1 = 0.6344, x2 = 0.2517 | 4.86 | 4.43
x1 = 0.673, x2 = 0.2236 | 5.04 | 4.6
x1 = 0.7094, x2 = 0.2009 | 5.22 | 4.75
x1 = 0.7331, x2 = 0.1948 | 5.33 | 4.86
x1 = 0.7722, x2 = 0.1661 | 5.51 | 5.03
x1 = 0.8061, x2 = 0.1434 | 5.67 | 5.19
